Here are results for 55 compounds from PubChem BioAssay AID463173 (ICCB-Longwood Screening Facility, Harvard Medical School, 2010).

The campaign covered roughly 52,000 compounds. About 1,700 (3.3%) were called active. No stated cut-off is given here; in the data, active means survival mostly below about 52% (no sharp cut-off); inactive means mostly above about 56%. This is one part of the list.

For the experiment, the system named is Wild type. The experiment can be described thus: S. aureus survival, RN4220 and DeltatarO strains – OD600, teichoic acid synthesis inhibitors, primary screen (AID 463173). The settings on record: S. aureus RN4220 wild type/DeltatarO growth, OD600, 18 h, active compounds read low, screened at 18.75 µg/mL (by protocol).
On to `COc1ccc(Cl)cc1NC(=O)[C@H]1O[C@@H]2OC(C)(C)O[C@@H]2[C@H]2OC(C)(C)O[C@H]21`, for which the survival is inactive: 83%.

As to `CCN1C(=O)N(C)C2C1N(C)C(=O)N2CC` (stereo not given), the survival is inactive: 105%.

As for `Cc1cc(C)c(NC(=O)CCn2nnc3ccccc32)c(C)c1`, the survival is inactive: 100%.

In the case of `O=S(=O)(c1cccs1)N1CCN(c2ccc(Cl)cc2)CC1`, the survival was inactive: 74%.

Take `COC(=O)c1cc(NC(=O)CN(c2ccccc2)S(=O)(=O)N(C)C)ccc1Cl`: the survival was inactive: 77%.

Consider `CCN1CCN(C(=O)c2ccc3c(c2)N(Cc2cc(C)ccc2C)C(=O)c2ccccc2S3=O)CC1` (stereo not given), for which the survival is inactive: 98%.

For `COc1ccc(NC(=O)Cn2cc(C(=O)C3CC3)c3ccccc32)cc1`, the survival is inactive: 91%.

As for `CCOc1ccccc1NC(=O)Cn1nnc2sc3c(c2c1=O)CCC(C(C)(C)C)C3` (stereo not given), the survival is inactive: 119%.

Take `NS(=O)(=O)c1ccc(CCNc2nc3c(-c4cccc(F)c4)nnn3c3ccc(Cl)cc23)cc1`: the survival was inactive: 71%.

As for `CCCCN(CCCC)S(=O)(=O)c1ccc2oc(C(=O)NCc3ccccc3)c(C)c2c1`, the survival was inactive: 73%.

Regarding `CCOC(=O)c1c(C)oc2c(Cl)cc(NS(=O)(=O)c3ccc(Cl)c(C)c3)cc12`, the survival was inactive: 54%.

Regarding `Cc1ccc(CSc2nc3ccc(NC(=O)COc4ccccc4F)cc3s2)cc1`, the survival is inactive: 98%.

Turning to `CCN(CC)CCCNC(=O)Cn1c(-c2cccs2)cc2cc(Cl)ccc21`, the survival was inactive: 68%.

Turning to `O=C(CCCCn1c(=O)[nH]c2ccsc2c1=O)N1CCN(c2cccc(Cl)c2)CC1`, the survival was inactive: 91%.

In the case of `CCOC(=O)c1c(C)[nH]c(C)c1S(=O)(=O)N(C)CC(=O)N1CCN(c2ccccc2OC)CC1`, the survival is inactive: 131%.

Regarding `CCOC(=O)N1CCN(C(=O)CN(c2ccc(C)cc2C)S(=O)(=O)c2ccccc2)CC1`, the survival is inactive: 69%.

In the case of `O=C(CN1C(=O)C2(SCC(=O)N2c2cccc(Cl)c2)c2ccccc21)NC1CCCCC1` (stereo not given), the survival was inactive: 91%.

Turning to `Cc1cc(C)c(/C=C/c2onc(C)c2S(=O)(=O)N2CCC(C(=O)NCc3ccco3)CC2)c(C)c1`, the survival was inactive: 72%.

As for `Cc1nn(CC(=O)N2CCN(c3ccccc3)CC2)c(=O)c2cccn12`, the survival is inactive: 87%.

For the compound `CCOCCN1CCN(c2c3c(nc4cc(-c5cccc(C)c5)nn24)CCC3)CC1`, the survival was inactive: 118%.

With `O=C(CNS(=O)(=O)c1ccc(Br)s1)N1CCN(c2ccccc2F)CC1`, the survival was inactive: 72%.

With `Cc1ccc(-c2nc3c(cnn3-c3ccccc3)c(=O)n2-c2ccc(Cl)cc2)cc1`, the survival was inactive: 70%.

`O=C(COCc1cc(-c2ccco2)on1)Nc1ccc(OC(F)(F)F)cc1`: the survival is inactive: 101%.

On to `COc1cccc(OC)c1C(=O)Nc1ccc2c(c1)CCCN2S(=O)(=O)c1ccc(C)cc1`, for which the survival was inactive: 93%.

Regarding `CCc1nn(CC(=O)NCc2cccc(OC)c2)c(=O)c2cc3cc(F)ccc3n12`, the survival is inactive: 69%.

Consider `Cc1oc(-c2ccc(Cl)cc2)nc1Cn1c(=O)cc(-c2ccccc2)c2c(C)nn(C)c21`, for which the survival is inactive: 85%.

Take `c1ccc(NCc2cccnc2)cc1`: the survival was inactive: 107%.

As to `Cc1ccc(-n2ncc3c(NCCC4=CCCCC4)ncnc32)cc1C`, the survival is inactive: 131%.

`CCc1ccc(NC(=O)c2ccc(CN3C(=O)C(C)=C(c4ccc(C)cc4)S3(=O)=O)cc2)cc1`: the survival was inactive: 84%.

Take `O=C(O)CCC(=O)Nc1cccc(C(=O)N2CCCCC2)c1`: the survival was inactive: 105%.

For the compound `COc1ccc(-c2onc(C)c2C)cc1S(=O)(=O)N1CCC(C)CC1`, the survival is inactive: 81%.

`CSc1nc2c([nH]c3ccccc32)c(=O)n1-c1ccc(F)cc1`: the survival was inactive: 113%.

As to `COc1cccc(-c2nc(C(N)=O)c3c(n2)n(-c2ccc4c(c2)OCO4)c(=O)n3C)c1OC`, the survival was inactive: 87%.

For the compound `Cn1c(C(=O)NCc2cccc(F)c2)cc2cc(S(=O)(=O)N3CCCCC3)ccc21`, the survival is inactive: 71%.

For the compound `CCOc1ccccc1NC(=O)CSc1cc(=O)n(CC)c2ccccc12`, the survival was inactive: 97%.

In the case of `O=C(Cn1cc(S(=O)(=O)Cc2ccc(F)cc2)c2ccccc21)NCc1ccccc1`, the survival was inactive: 68%.

In the case of `COc1ccccc1CCNC(=O)c1cccn1-c1nnc(N2CCCCC2)s1`, the survival was inactive: 87%.

As for `OC(c1ccc(Br)cc1)C12CN3CN(CN(C3)C1)C2` (stereo not given), the survival was inactive: 106%.

Consider `CC(=O)c1cc(-c2ccccc2)n(CCC(=O)Nc2cc(C)cc(C)c2)c1C`, for which the survival is inactive: 110%.

Take `CCOc1ccc(-c2cc(C(F)(F)F)c(C#N)c(SCC(=O)Nc3ccccc3)n2)cc1`: the survival was inactive: 60%.

For `CCCNC(=O)CN1C(=O)c2cccnc2Sc2ccccc21`, the survival was inactive: 55%.

Regarding `Cc1cccc(NC(=O)CSc2nc(C)c(Cc3ccccc3)c(=O)[nH]2)c1`, the survival is inactive: 39%.

`CSc1nnc(-c2cc3ccccc3cc2O)n1C`: the survival was inactive: 111%.

As for `O=C(NCc1ccco1)C(c1ccccc1)N(CCc1ccccc1)C(=O)Cn1nnc2ccccc21` (stereo not given), the survival was inactive: 111%.

On to `CCOc1ccc2[nH]c(=O)c(CN(CCc3ccccc3)C(=O)N(C)C)cc2c1`, for which the survival was inactive: 105%.

As for `COc1ccccc1N1CCN(C(=O)c2c3c(nc4ccccc24)C(=O)N(C2CCCCC2)C3)CC1`, the survival is inactive: 87%.

Regarding `Cc1ccc(C)c(N2CCN(C(=O)c3c4c(nc5ccccc35)C(=O)N(C3CCCCC3)C4)CC2)c1`, the survival is inactive: 95%.

`COc1ccc(-c2nc(CNS(=O)(=O)c3ccc(F)cc3)cs2)cc1`: the survival was inactive: 123%.

For `CCCOc1cccc(C(=O)Nc2ccc(-c3nc4ccccc4o3)cc2)c1`, the survival is inactive: 75%.

With `O=C(CSc1nc2c(c(=O)[nH]1)CN(Cc1ccc3c(c1)OCO3)CC2)Nc1ccc(F)cc1`, the survival was inactive: 81%.

Regarding `CCC(C)NC(=O)c1sc2nc(C)c(C(=O)Nc3ccc(Cl)cc3)c(-c3ccc(Br)cc3)c2c1N` (stereo not given), the survival is inactive: 106%.

For the compound `COc1cc(OC)cc(-n2c(=O)c3ccccc3n(CC(=O)NCCc3ccc(OC)c(OC)c3)c2=O)c1`, the survival was inactive: 77%.

As for `COc1ccc2cc(CNc3ccc(OC)c(OC)c3)c(=O)n(CC(=O)Nc3ccc(C)cc3)c2c1`, the survival was inactive: 71%.

Turning to `COc1cc(C(=O)Nc2ccc(OCc3cc(=O)n4cc(C)sc4n3)cc2)cc(OC)c1OC`, the survival was inactive: 125%.

As to `O=C(NCCc1ccccc1)c1c[nH]c2ccc(S(=O)(=O)Nc3ccccc3F)cc2c1=O`, the survival is inactive: 68%.
